Results on 22 molecules are retold here after article PMC12136788.

First the molecules themselves.
T1: UNK ZnF1-3 (human, UniProt Q9C0B0 31-174)
T1 sequence: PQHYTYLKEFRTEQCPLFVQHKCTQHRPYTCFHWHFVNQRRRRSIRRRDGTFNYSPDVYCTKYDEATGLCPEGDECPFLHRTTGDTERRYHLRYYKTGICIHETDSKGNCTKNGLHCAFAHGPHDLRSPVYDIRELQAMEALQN

B1: 145565605_145565725_3093_CDS_ENSMUSG00000045482_ENSMUST00000132925|mouse|control|control (ssRNA)
RNA: GGGAGUUCUACAGUCCGACGAUCUGUAGAAGACCUUGUGCUCCACCACAUUGAGAUCCAUCGUGAAGAGUCGAGGCUGCAGCGUGGUACAGAACGUAUUGCCCUCCAUCAGUCCGAUCUGGGCGUUGGCAGGCUGGUGUCGCACAACAGAGGAUUGAGCAUCA
B2: chrX:20248820:20248821:+_ENSMUSG00000001924_ENSMUST00000001989|mus_hu|FALSE|FALSE (ssRNA)
RNA: GGGAGUUCUACAGUCCGACGAUCGGCGAAGUCCGUCACCACAAAGUCAGGUUCUGCCAGUGAGGCCACCAAGGAUUUAAAGCUAAUCUUCUUAGGUACUUUGACCUGACUGACGAUGCCUCCACGGAUGUAGUCGGAGAAGUUCAACAGAGGAUUGAGCAUCA
B3: chr1:46159212:46159213:+_ENSG00000159596_ENST00000372025|hu_mus|hu_hu_hu_mus_True|18_38 (ssRNA)
RNA: GGGAGUUCUACAGUCCGACGAUCUCUGAUCCCUCCCAAGAAAGCUAGGAAACCGGCUCCAUAAGCCAUCUGAGUGAAAGCUAGGACGGGGAUAUAAGUUUUUGUCAUUACCAUGAGCAGUGGUGGAGCAGUAAAGGGGAUUAACAACAGAGGAUUGAGCAUCA
B4: chr17:65740002:65740003:+_ENSG00000130935_ENST00000581375|hu_hu|hu_hu_hu_mus_False|18_38 (ssRNA)
RNA: GGGAGUUCUACAGUCCGACGAUCAACAAAUCUUUCUUCCCUGGACGAACAGGAAGAUUCAUAUUAAAAAAAAUAUAUAUCCAUCAAGUUAGGUGUGUAAUAUCAGACUUUACUCCCCACUUCAAUUGAGGUGGAUCUCUGAGUCAACAGAGGAUUGAGCAUCA
B5: chr11:23509083:23509084:-_ENSMUSG00000042208_ENSMUST00000043356|mus_hu|FALSE|FALSE (ssRNA)
RNA: GGGAGUUCUACAGUCCGACGAUCUGUUCCCCACAAUCGCCAGUAUACAUCUCUCCAAGAUUUUAAUUCUUCGAAAAGACUAUUCAAAUACUCAUGAACAUCCCAUGUCUUAUCUCUUAUGUGAAUAUAGACAAUAUUUCCACGCAACAGAGGAUUGAGCAUCA
B6: chr11:64571133:64571134:-_ENSG00000133895_ENST00000312049|hu_mus|FALSE|FALSE (ssRNA)
RNA: GGGAGUUCUACAGUCCGACGAUCCUUUCUUGGAACUGAAAAAUAAAUCUAUGUACAAAACAGGAAGAGGCUGGCCCUCCCCCACCCCGUGCAGAUUUCCUCCUGGGACCUCAGGGAGGUUCCCAGAGGGCUGGAAGAGGUCCUCAACAGAGGAUUGAGCAUCA
B7: chr19:30113593:30113594:+_ENSMUSG00000024817_ENSMUST00000025739|mus_hu|motif|central (ssRNA)
RNA: GGGAGUUCUACAGUCCGACGAUCGGGUUUAGCCUCAAUCUGUGUAGAUGUGCCAGGAAGAUGAUCAGGGUCUGGGCGAACGGGCAGCUGAAUUAUAUCAUUCAGUCCAACAUCAUAAUCAAAUAAGGUAUAUCCAUUUUCCAACAACAGAGGAUUGAGCAUCA
B8: 38089721_38089841_695_3pUTR_ENSMUSG00000022812_ENSMUST00000023507|mouse|control|control (ssRNA)
RNA: GGGAGUUCUACAGUCCGACGAUCGUCCCUCGGGGUCCCCUCCCCCGUCCGUGGCCCCGGCACGGCCGGCCUCCGCCCCUCGCCUUUGCUCAGCGGCUGCUCGGGAAGUGUCCGCGCUGUGCCCGGAGCCCGAAGCCCUGUCAGCAACAGAGGAUUGAGCAUCA
B9: chr7:116084223:116084224:+_ENSMUSG00000031029_ENSMUST00000033342|mus_hu|FALSE|FALSE (ssRNA)
RNA: GGGAGUUCUACAGUCCGACGAUCUGAUGCCCCUCCUACUUGCUGCAAGUCACUUGAGAGUCCAAUCACUCUGUUGGGGCUAAAGCAGGUCUUCAUGAUCAGGUCAACUCCGAUGCGUUCAGUGUCGUAGUACGCGUAUUUCACCAACAGAGGAUUGAGCAUCA
B10: chr1:220276048:220276049:+_ENSG00000067704_ENST00000302637|hu_hu|hu_hu_hu_mus_True|58_58 (ssRNA)
RNA: GGGAGUUCUACAGUCCGACGAUCGCAAAUUGCCUGGUUGGCGGGAAUUGUCCAAGGCUGGGUGGUCCAAACUAAAAUACUAACAGGGGAUGAGGCAUCUGUAAGAGACUCCAACUUCGGAGGAGGUCUCAGGAGGGGGAAUCUCAACAGAGGAUUGAGCAUCA
B11: chr13:36245089:36245090:+_ENSG00000172915_ENST00000537702|perfect_dup|motif|central (ssRNA)
RNA: GGGAGUUCUACAGUCCGACGAUCUUCUGCUGCUUCUCUUCAGUACCUGUUCUGAUGCUCAUAAUGCCACCGAUUAAAAUCGGUAUUAAAAGCUACAAUGCUGCCGGAAGCCAUGCCAGUGAUCAGAGUCCUUUGGUCAUGGGACAACAGAGGAUUGAGCAUCA
B12: chr2:217001844:217001845:+_ENSG00000079246_ENST00000392132|hu_hu|hu_hu_hu_mus_False|58_78 (ssRNA)
RNA: GGGAGUUCUACAGUCCGACGAUCACCAACUUGAGGAUUAGAUCUUUUGUCAUAAGCAUAUCGAACUAUGGCGACCAUGUCUAAGUCAUCCAAAGCAUGAACGAGAGAGGAAAGGGCAACAGCUGCCGCCUCAUCAUCCUUUGCCAACAGAGGAUUGAGCAUCA
B13: chr7:13615833:13615834:+_ENSMUSG00000005566_ENSMUST00000005705|mus_hu|FALSE|FALSE (ssRNA)
RNA: GGGAGUUCUACAGUCCGACGAUCCUUGUUGAAUUGCUUGAACAUGCGGCCCACAUCCUGGGCAAACUCCUGUGGGGAGCUGUAGGGAGGUGACAACUUCUCCUGGAGGCGGGCACGGAUCAGGGUCAGAUCCAGGGUGCCACCCAACAGAGGAUUGAGCAUCA
B14: chr6:44218252:44218253:+_ENSG00000096384_ENST00000371646|hu_hu|FALSE|FALSE (ssRNA)
RNA: GGGAGUUCUACAGUCCGACGAUCAUUAGUGAGGCUCUUGUAGAAUUCUCCAUACUCCUCUUGGGUGAUGUCAUCAGGGUUUCUGGUCCAAAUAGGCUUGGUCUUGUUUAGUUCUUCCUGAUCAAUGUAUUUCUCUUUGAUCUUCAACAGAGGAUUGAGCAUCA
B15: chr13:31725248:31725249:-_ENSG00000120694_ENST00000320027|perfect_dup|FALSE|FALSE (ssRNA)
RNA: GGGAGUUCUACAGUCCGACGAUCUUUGGAUUUUGCAUCCAACUUGUACUUAGUUUUAAAUUCUGCACAAAAAUGUUCCACUAACUUUUCAUCGAAGUUUUUUCCUCCUAAGAAAGGAUCAAAAGCUGUUCCCAGUACCUUCAACAACAGAGGAUUGAGCAUCA
B16: chr2:9570881:9570882:+_ENSG00000119203_ENST00000238112|hu_mus|hu_hu_hu_mus_False|98_108 (ssRNA)
RNA: GGGAGUUCUACAGUCCGACGAUCACUUGUCUUCUGUAGAAACCAGGGCAGGGCUCCACAGUGAUCCAAAUGGAAAUGACUGAUCAACAGAAGGUCGAUCUCAGCUGGGUCGAUAAGGUCAAUGUAAGGAAGGGCAUCCAUUCCCAACAGAGGAUUGAGCAUCA
B17: chrX:41029285:41029286:+_ENSG00000124486_ENST00000378308|hu_mus|motif|central (ssRNA)
RNA: GGGAGUUCUACAGUCCGACGAUCUGUAUGAGACCAAACCUCCAAGUCAUCUACUUGCCUGCCCUGGUUUGGAAAUCGAACGGUAAAAGAGAGGUGUUUACCACGGAAAGCUCUUGACAUAGGCAAAAUUGUUCUUUCUUCAUGCAACAGAGGAUUGAGCAUCA
B18: chr1:145441008:145441009:+_ENSG00000117289_ENST00000369317|hu_mus|FALSE|FALSE (ssRNA)
RNA: GGGAGUUCUACAGUCCGACGAUCGCACGGAUCCACCUCAGUGUAAGUGGGUGGGGGCAUGAACUGGAACUCAGGGGCGUACAUAAAGAUAGGGCUGUCUUGAGAGUCGUCCACAUCGUCCAGCAGAGGGGUGGUGGGGCUCUCCAACAGAGGAUUGAGCAUCA
B19: chr8:117866615:117866616:-_ENSG00000164754_ENST00000297338|hu_hu|FALSE|FALSE (ssRNA)
RNA: GGGAGUUCUACAGUCCGACGAUCCAAUUUCUUGGUGGGCGGUGCCAGAUCCAAAGUAGUAACAAUAUCUGAAUAAUCACUAAGUUGGGCUCUAAUUGUCUUGCUAUCCAACUCUUUGACACUGUCAACAAUUAGCUUCCUCUUCAACAGAGGAUUGAGCAUCA
B20: 55789658_55791967_5080_CDS_ENSMUSG00000027799_ENSMUST00000029374|mouse|control|control (ssRNA)
RNA: GGGAGUUCUACAGUCCGACGAUCAACAACAGCCAGGGCUAAGAAUUGUGCCUGCUUGCUAUCAUCCACAUCUCGAAAGACAACAGCACGAAGGCGAUUGAUAUCAACAUCCUGAAGAAGCCUAUCGGGAUCCUUGAUGGGAGACAACAGAGGAUUGAGCAUCA
B21: 158619828_158619948_6993_3pUTR_ENSG00000272047_ENST00000607778|human|control|control (ssRNA)
RNA: GGGAGUUCUACAGUCCGACGAUCCCCCGUUUGAAGAGAUCAGGAAGACUCAUGUAUUCCAGGCAACAUUAAGAAGUUUUAAAAUUUCAAAGAAAUAAUUAACUGCAGGAAAGGGAGGGAGGGAUGAAGAAUGAUGGCCAACUACAACAGAGGAUUGAGCAUCA
B22: chr9:37780755:37780756:-_ENSG00000107371_ENST00000396521|hu_hu|motif|central (ssRNA)
RNA: GGGAGUUCUACAGUCCGACGAUCGCCAAUCUGGAGAAGAUCUGUUUUCUUUGAUCUGACGUCAUGUGUUCACAAGCUUCGGAAAUGUUUGCCAAAAUUAAAGUCUGCUGGAUGGUUUUUGCCUUAACCCAUAUUCUUCCAUUCCAACAGAGGAUUGAGCAUCA

Some of the results follow.

For the test, the target named is T1, UNK ZnF1-3. As to the kind of experiment: nsRBNS (natural sequence RNA bind-n-seq); RBNS binding buffer (assumed for nsRBNS): 25 mM Tris pH 7.5, 150 mM KCl, 3 mM MgCl2, 0.01% Triton X-100, 500 ug/ml BSA, 20 U/ml SUPERase-In, 4 C; UNK is unkempt and MSI1 is Musashi-1; names of the RNAs are library labels; protein concentration not given here; high values mean tight binding.
B1 showed a binding signal of 0.984 enrichment R.

B2 displayed a binding signal of 1.01 enrichment R.

As for B3, the binding signal came to 1.63 enrichment R.

With B4, the binding signal was found to be 0.875 enrichment R.

B5 showed a binding signal of 1.09 enrichment R.

Regarding B6, the binding signal stood at 1.03 enrichment R.

With B7, the binding signal turned out to be 1.27 enrichment R.

B8 came in with a binding signal of 1.75 enrichment R.

Consider B9, for which the binding signal worked out at 0.602 enrichment R.

In the case of B10, the binding signal amounted to 2.07 enrichment R.

B11: the binding signal is 1.05 enrichment R.

Regarding B12, the binding signal was determined as 1.75 enrichment R.

Regarding B13, the binding signal is 0.955 enrichment R.

Regarding B14, the binding signal is 0.34 enrichment R.

As for B15, the binding signal amounted to 1.41 enrichment R.

The molecule B16 yielded a binding signal of 1.46 enrichment R.

Consider B17, for which the binding signal is 1.07 enrichment R.

B18 returned a binding signal of 1.3 enrichment R.

The molecule B19 yielded a binding signal of 1.07 enrichment R.

Consider B20, for which the binding signal is 1.07 enrichment R.

Regarding B21, the binding signal is 2.16 enrichment R.

As for B22, the binding signal is 0.934 enrichment R.
